# Source: PubChem BioAssay AID651820 (National Center for Advancing Translational Sciences (NCATS), 2012)
# Screen size: about 340,000 compounds; about 12,000 (3.5%) were called active. Inconclusive results, whose numbers are uncertain, are shown with a selection of clear calls. The call rests on the fitted dose curve; in most records, active means well fitted inhibition curve with a large enough effect; inconclusive means small, poorly fitted or top-dose-only effect, or another doubt; inactive means no such curve, though single readings can be large or run the other way. No potency is given beside an inconclusive call; the fits are too rough.
# Experiment: qHTS Assay for Inhibitors of Hepatitis C Virus (HCV)
# Settings: Huh7.5.1 HCVcc-Cre (HCVcc is cell-culture hepatitis C virus) infection, luciferase reporter, 44 h; activity change, negative = inhibition: at 41.8 µM (top of the series) unless noted
# Method in brief: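 A cell-based infection assay in which seeded cells (1,000 per well) receive test compound after 4 h, are inoculated with HCVcc-Cre at approximately 0.5 moi, and are incubated 44 h before luminescence detection.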
# On the % scale 0 is the no-effect control and ±100 the full control effect; potency means the concentration at half of the fitted maximal effect; tags describe the fitted curve by direction and shape.
SMILES,Potency,"activity change, negative = inhibition"
Cc1ccc(-c2nnc(N3CCC(C)CC3)c3ccccc23)cc1C,"inconclusive [inhibitor, single point]",–
Cc1ccc(-c2nn3c(C)nnc3s2)cc1NC(=O)c1ccc(-c2ccc(Cl)cc2Cl)o1,"inconclusive [inhibitor, partial curve]",–
NS(=O)(=O)c1ccc(NC(=O)COc2ccc(C(=O)c3ccc(F)cc3)cc2)cc1,active: 14.1 µM,–
Cc1cccc(N(CC(=O)NCc2ccc3c(c2)OCO3)C(=O)CCC(=O)Nc2ccccn2)c1,–,inactive: -12.8%
CCN(CC)C(=O)Cn1cnc2sc(C(=O)N3CCN(Cc4ccc5c(c4)OCO5)CC3)c(C)c2c1=O,"inconclusive [inhibitor, single point]",–
CCC(C)(C(=O)NC1CCCC1)N(Cc1cccs1)C(=O)Cc1cccs1 (configuration not stated),"inconclusive [inhibitor, single point]",–
Cc1ccc(NC(=S)/C(=C(\[O-])c2ccc(Cl)s2)[n+]2cccc(CO)c2)cc1C,"inconclusive [inhibitor, partial curve]",–
COc1cccc(NC(=O)CNCc2ccccc2)c1,"inconclusive [inhibitor, single point]",–
CCC1CN(C(=O)N2CCC(C(=O)NCc3ccccc3C)CC2)c2ccccc2O1 (configuration not stated),"inconclusive [inhibitor, partial curve]",–
CC(C)OCCCNc1ncnc2c1[nH]c1ccccc12,active: 2.51 µM,–
Nc1nc(Nc2ccccc2)nc(NC2CCCCC2)c1[N+](=O)[O-],active: 10 µM,–
CCN(CC)CCCN(C(=O)c1ccccc1C)c1nc(-c2ccc(OC)cc2)cs1,–,inactive: -30%
Oc1c(C(Nc2cccc(C(F)(F)F)c2)c2ccncc2)ccc2cccnc12 (configuration not stated),active: 6.31 µM,–
O=C(CSc1ccc2nnc(-c3ccccn3)n2n1)Nc1ccccc1,–,inactive: 17.1%
CCOC(=O)C1=C(COC(=O)/C=C/c2ccc(OC)cc2OC)NC(=O)NC1C (configuration not stated),"inconclusive [inhibitor, partial curve]",–
Cn1c(=O)c2c(ncn2CC(=O)Nc2ccccc2Sc2ccccc2)n(C)c1=O,–,inactive: -8.95%
CCc1ccc2c(CN3CCN(Cc4ccccc4)CC3)cc(=O)oc2c1,"inconclusive [inhibitor, partial curve]",–
CCOC(=O)c1c(C)[nH]c(C(=O)Nc2ccc(NC(C)=O)cc2)c1C,"inconclusive [inhibitor, full curve, poor fit]",–
COc1cccc(C(=O)NN2CC(O)=C(c3nc4ccccc4s3)C2=N)c1,–,inactive: -12.3%
O=C(Nc1ccccc1)c1cc(S(=O)(=O)NCc2ccncc2)ccc1Cl,"inconclusive [inhibitor, full curve]",–
COc1ccc(/C=N/NC(=O)c2cccc(NC(C)=O)c2)c(OC)c1,–,inactive: 4.3%
CCc1cc2c(C)cc(C)cc2nc1SCC(=O)Nc1cc(C)on1,"inconclusive [inhibitor, single point]",–
COCC(C)NC(=O)c1cc2c(ccc3ccccc32)oc1=O (configuration not stated),–,inactive: -6.79%
CCOc1cc(S(=O)(=O)N(CC)CC)c(OCC)cc1-n1cnnn1,–,inactive: -25.1%

SMILES,Potency,"activity change, negative = inhibition"
Cc1cc(C=O)c(C)n1-c1cccc(C(=O)O)c1,–,inactive: 22.2%
CCCCCCCOc1ccc(OC(=O)c2ccncc2)cc1,"inconclusive [inhibitor, partial curve]",–
Cc1cc(/N=C/C=C2\N(C)c3ccccc3C2(C)C)n(CCC#N)n1,active: 11.2 µM,–
COc1ccc(OC)c(-n2nnnc2SCC(=O)Nc2cc(C)ccc2OC)c1,"inconclusive [inhibitor, partial curve]",–
Cc1ccc(C(=O)N2CCC3(CC2)Oc2ccc(Cl)cc2C(=O)C32CC(c3cccnc3)=NO2)s1 (configuration not stated),–,inactive: 36.4%
Cc1ccc2nc(SCC(=O)Nc3cc([N+](=O)[O-])ccc3F)[nH]c2c1,"inconclusive [inhibitor, single point]",–
CCCCNC(=O)/C(=C\c1ccc([N+](=O)[O-])o1)NC(=O)c1ccccc1,"inconclusive [inhibitor, single point]",–
O=C1CCC(=O)N1CNc1ccc(Oc2ccccc2)cc1,"inconclusive [inhibitor, single point]",–
Cc1nnc(SCC(=O)Nc2nsc(-c3ccc(C(C)(C)C)cc3)n2)s1,–,inactive: 3.14%
COc1ccccc1/C=N\Nc1cc(C)nc(-n2nc(C)cc2C)n1,active: 3.16 µM,–
O=C1CC(c2ccc(O)c(O)c2)Oc2cc(O)cc(O)c21 (configuration not stated),"inconclusive [inhibitor, full curve, poor fit]",–
C=CC[C@@H](CC(=O)N[C@H](CO)Cc1ccccc1)C(=O)N[C@@H](C)COC(=O)[C@@H](CC=C)Cc1ccc(F)cc1,"inconclusive [inhibitor, partial curve]",–
Fc1cc(F)c2nc(N3CCCC3)sc2c1,–,inactive: 10.4%
O=[N+]([O-])c1cccc(SSc2cccc([N+](=O)[O-])c2)c1,"inconclusive [inhibitor, partial curve]",–
COCCNC(=O)c1ccccc1NC(=O)Nc1ccccc1,–,inactive: 2.51%
COc1ccc(C(CCNCc2ccc(N(C)C)cc2)C(C)C)cc1 (configuration not stated),"inconclusive [inhibitor, partial curve]",–
O=[N+]([O-])c1ccccc1Oc1ccc(Cl)c2cccnc12,"inconclusive [inhibitor, partial curve]",–
CCN(CC)C(=O)CSc1nnc(-c2ccccn2)n1Cc1ccccc1,–,inactive: 16.9%
O=C(COC(=O)c1cccc(OC(F)F)c1)NCC1CCCO1 (configuration not stated),–,inactive: -0.402%
COc1nc(-c2ccccc2)cc(-c2ccc3c(c2)OCO3)c1C#N,"inconclusive [inhibitor, full curve]",–
O=C(O)c1ccc2c(c1)S(=O)(=O)c1cc(Cl)ccc1C2=O,–,inactive: 4.7%
COc1ccc(C2/C=C\CN(CC(C)C)CC(=O)N2Cc2cccc(F)c2)cc1 (configuration not stated),"inconclusive [inhibitor, full curve, poor fit]",–
O=C1C2C(c3ccccc3)C=CC(c3ccccc3)C2C(=O)N1CCCO (configuration not stated),–,inactive: 6.29%
